About 2,200 (0.71%) of roughly 310,000 compounds showed an effect of 50% or more. The effect is printed as a negative number. This is one part of the list. Where a SMILES comes first, the peptide text is derived from it. The star is where a group is joined. Boc = CC(C)(C)OC(=O)*
Target: human ether-à-go-go-related gene (hERG) potassium channel (human, UniProt Q12809)
Experiment: primary screen, population patch clamp on CHO cells stably expressing hERG

human ether-à-go-go-related gene (hERG) potassium channel, sequence (Q12809 whole entry, looked up): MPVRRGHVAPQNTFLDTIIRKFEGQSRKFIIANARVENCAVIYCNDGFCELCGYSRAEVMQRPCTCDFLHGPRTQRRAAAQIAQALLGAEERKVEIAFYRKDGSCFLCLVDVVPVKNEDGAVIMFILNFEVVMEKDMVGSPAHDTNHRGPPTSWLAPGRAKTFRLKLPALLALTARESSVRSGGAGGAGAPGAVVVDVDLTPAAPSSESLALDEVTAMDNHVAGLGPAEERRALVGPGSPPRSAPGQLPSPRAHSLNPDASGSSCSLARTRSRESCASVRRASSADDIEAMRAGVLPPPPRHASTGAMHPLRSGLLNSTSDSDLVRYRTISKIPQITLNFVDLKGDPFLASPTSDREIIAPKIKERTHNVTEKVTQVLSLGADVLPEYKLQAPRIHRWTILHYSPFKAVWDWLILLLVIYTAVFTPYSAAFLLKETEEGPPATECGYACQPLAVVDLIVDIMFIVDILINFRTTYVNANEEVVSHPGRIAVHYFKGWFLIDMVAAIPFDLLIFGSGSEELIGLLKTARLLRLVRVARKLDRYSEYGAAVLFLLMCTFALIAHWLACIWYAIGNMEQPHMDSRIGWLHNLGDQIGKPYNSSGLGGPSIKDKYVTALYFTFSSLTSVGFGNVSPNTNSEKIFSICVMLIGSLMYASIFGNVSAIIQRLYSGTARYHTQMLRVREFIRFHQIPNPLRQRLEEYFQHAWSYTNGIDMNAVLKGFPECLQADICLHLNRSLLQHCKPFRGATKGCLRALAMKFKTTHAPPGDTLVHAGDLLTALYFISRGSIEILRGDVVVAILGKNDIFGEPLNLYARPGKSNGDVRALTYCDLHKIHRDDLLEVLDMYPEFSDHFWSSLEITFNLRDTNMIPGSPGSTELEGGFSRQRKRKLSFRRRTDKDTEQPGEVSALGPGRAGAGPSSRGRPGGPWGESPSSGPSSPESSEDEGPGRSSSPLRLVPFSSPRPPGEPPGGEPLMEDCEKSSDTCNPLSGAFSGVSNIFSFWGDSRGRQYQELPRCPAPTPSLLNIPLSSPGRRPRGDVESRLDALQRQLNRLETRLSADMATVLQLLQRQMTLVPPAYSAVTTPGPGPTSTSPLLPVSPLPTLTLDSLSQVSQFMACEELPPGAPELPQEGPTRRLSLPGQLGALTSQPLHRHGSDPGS

For `OC(CNC1Cc2ccccc2C1)COc1ccc(Cl)cc1` (stereo not shown), which “hERG current change (%, negative = inhibition) at 1uM” value is on record?
Its value is -11.2%.

How did the “hERG current change (%, negative = inhibition) at 1uM” value turn out when `Cc1ccc(NC(=S)c2ccccc2)cc1` was run?
Its value is 14.2%.

`COC(=O)c1ccc(C(C2C(=O)CC(C)(C)CC2=O)C2C(=O)CC(C)(C)CC2=O)cc1` was tested. Which “hERG current change (%, negative = inhibition) at 1uM” value did it give?
The value was 15%.

For `CC(C(=O)Nc1ccccc1)N(C)Cc1cccs1` (stereo not shown), which “hERG current change (%, negative = inhibition) at 1uM” value is on record?
The value was 6.69%.

How did the “hERG current change (%, negative = inhibition) at 1uM” value turn out when `CCc1nc(NCc2ccccn2)c2oc3ccccc3c2n1.Cl` was run?
Its value is 7.35%.

How did the “hERG current change (%, negative = inhibition) at 1uM” value turn out when `Cl.O=C(COc1ccccc1)N1CCN(CC(O)COc2ccccc2)CC1` (stereo not shown) was run?
Its value is -24.5%.

With `CCOC(=O)C1CCN(Cc2ccc(Cl)nc2)CC1` as the molecule, how does the “hERG current change (%, negative = inhibition) at 1uM” value read?
Its value is 11.6%.

Which “hERG current change (%, negative = inhibition) at 1uM” value does the source give for `Cc1c(C)n2c3c(cccc13)CC2` here?
Its value is 0.614%.

With `Cn1cc(C(=O)N/N=C/C=C/c2ccccc2)ccc1=O` as the molecule, how does the “hERG current change (%, negative = inhibition) at 1uM” value read?
The value was 7.6%.

For `Cc1ccc(C)c(COC(=O)c2cc(S(=O)(=O)N3CCCCC3)ccc2N2CCOCC2)c1`, which “hERG current change (%, negative = inhibition) at 1uM” value is on record?
Its value is 9.45%.

With `Cc1ccc(C)c(NC(=O)CCN2CCCCC2)c1` as the molecule, how does the “hERG current change (%, negative = inhibition) at 1uM” value read?
The value was 11.6%.

`CCC(=O)Nc1nonc1-c1nc2ccccc2n1Cc1ccccc1` was tested. Which “hERG current change (%, negative = inhibition) at 1uM” value did it give?
Its value is 7.36%.

`CC(NC(=O)C(NC(=O)C1CCCN1C(=O)OC(C)(C)C)C(C)C)C(N)=O` (stereo not drawn) (Boc-Pro-Val-Ala-NH2; configuration not given here) was tested. Which “hERG current change (%, negative = inhibition) at 1uM” value did it give?
The value was 3.29%.

How did the “hERG current change (%, negative = inhibition) at 1uM” value turn out when `NNC(=O)c1ccc(N2CCCCCC2)c([N+](=O)[O-])c1` was run?
Its value is 6.74%.

With `O=C1NC(=O)N(c2ccccc2)C(=O)/C1=C/c1ccc(Sc2ccccc2)o1` as the molecule, how does the “hERG current change (%, negative = inhibition) at 1uM” value read?
Its value is 17.2%.

How did the “hERG current change (%, negative = inhibition) at 1uM” value turn out when `Cc1cc(Cl)ccc1OCC(=O)N1CCN(c2ncccn2)CC1` was run?
Its value is -8.29%.

With `NNC(=O)c1cccc(COc2ccc3c(c2)CCC3)c1` as the molecule, how does the “hERG current change (%, negative = inhibition) at 1uM” value read?
Its value is 10.6%.

With `O=C(O)c1ccccc1Oc1ccc(Oc2ccccc2)cc1` as the molecule, how does the “hERG current change (%, negative = inhibition) at 1uM” value read?
The value was 14.9%.

`Cc1ccc(CC(CC(=O)O)C(=O)NC2CCCCC2)cc1` (stereo not shown) was tested. Which “hERG current change (%, negative = inhibition) at 1uM” value did it give?
The value was -7.37%.

How did the “hERG current change (%, negative = inhibition) at 1uM” value turn out when `CCOC(=O)CN1N=C(/C=C/c2ccc(C)cc2)CCC1=O` was run?
The value was 12.2%.

How did the “hERG current change (%, negative = inhibition) at 1uM” value turn out when `CN(C)CCCNC(=O)c1cc2sc3ccccc3c2s1.Cl` was run?
The value was 5.18%.

`COc1ccccc1CNC(=O)CSc1ccc(-c2ccncc2)nn1` was tested. Which “hERG current change (%, negative = inhibition) at 1uM” value did it give?
The value was 9.96%.

Which “hERG current change (%, negative = inhibition) at 1uM” value does the source give for `COC(=O)C1C(=O)c2c([nH]c(C(=O)OC3CCCCC3)c2C)CC1C` (stereo not shown) here?
The value was 9.81%.

With `O=C(C1=C(O)C(=O)N(c2ncccn2)C1c1ccc(Cl)c(Cl)c1)c1ccco1` (stereo not shown) as the molecule, how does the “hERG current change (%, negative = inhibition) at 1uM” value read?
The value was 9.84%.

For `c1ccc(CCc2nn3c(Cn4nnc5ccccc54)nnc3s2)cc1`, which “hERG current change (%, negative = inhibition) at 1uM” value is on record?
Its value is -14.3%.

Source: publication PMC4336329 (PLoS ONE, 2015)
